Structures can show the parent of a compound that is named as a salt. ± gives the standard deviation of the averaged measurements. This is one part of the list. Repeats are few or missing, and single values can be far off.
Experiments:
Test in all cases: log2 surviving fraction relative to plate median (drug vs vehicle, or drug+dl922-947 vs dl922-947 alone); ovarian cancer lines: OVCAR4 is platinum-sensitive while Ov4Cis resists cisplatin and Ov4Carbo carboplatin; higher = more cell survival
Conditions in all cases: compound concentration: 10 uM, 192 h
OVCAR4 = tested on: OVCAR4
Ov4Carbo = tested on: Ov4Carbo
Ov4Cis = tested on: Ov4Cis
[1] = dl922-947 oncolytic adenovirus co-treatment: MOI 10
[2] = dl922-947 oncolytic adenovirus co-treatment: none

| SMILES | log2 surviving fraction (OVCAR4; [1]) | log2 surviving fraction (OVCAR4; [2]) | log2 surviving fraction (Ov4Carbo; [1]) | log2 surviving fraction (Ov4Carbo; [2]) | log2 surviving fraction (Ov4Cis; [1]) | log2 surviving fraction (Ov4Cis; [2]) |
| --- | --- | --- | --- | --- | --- | --- |
| CN[C@@H]1[C@H](O[C@H]2[C@H](O[C@H]3[C@H](O)[C@@H](O)[C@H](N=C(N)N)[C@@H](O)[C@@H]3N=C(N)N)O[C@@H](C)[C@]2(O)C=O)O[C@@H](CO)[C@H](O)[C@H]1O [Streptomycin sulfate] | 1.57 ± 0.43 | 0.37 ± 2.3 | 0.368 | 0.85 | 1.35 | 1.07 |
| COC(=O)Nc1nc2cc([S+]([O-])c3ccccc3)ccc2[nH]1 (stereo not drawn) [Oxfendazole] | -0.951 ± 0.27 | -2.59 ± 0.98 | -1.18 | -1.3 | -1.19 | -1.91 |
| COc1ccc2cc(CCC(C)=O)ccc2c1 [Nabumetone] | 0.306 ± 0.54 | -0.276 ± 0.28 | 0.488 | 0.287 | 1.61 | 0.482 |
| c1ccc2[nH]c(-c3cscn3)nc2c1 [Thiabendazole] | -0.399 ± 0.95 | -0.158 ± 0.62 | -0.042 | 0.909 | 0.248 | -0.929 |
| NC(=O)OCC(COC(N)=O)c1ccccc1 [Felbamate] | -0.0351 ± 1.1 | 0.112 ± 0.74 | 0.624 | -0.602 | 0.457 | 0.578 |
| Cc1ccc(C(=O)Nc2ccc(CN3CCN(C)CC3)c(C(F)(F)F)c2)cc1C#Cc1cnc2cccnn12 | -9.43 ± 0.53 | -11.6 ± 6.6 | -8.42 | -11.7 | -9.63 | -14.5 |
| CN1CCN2c3ncccc3Cc3ccccc3C2C1 (stereo not drawn) [Mirtazapine (Remeron, Avanza)] | 0.0185 ± 0.56 | -0.308 ± 0.047 | 0.97 | 0.151 | 0.366 | -0.339 |
| C#C[C@]1(O)CC[C@H]2[C@@H]3CCc4cc(OC)ccc4[C@H]3CC[C@@]21C [Mestranol] | -0.237 ± 0.4 | -0.707 ± 0.83 | 1.09 | -0.0457 | -0.0756 | -0.948 |
| C[C@@](Cc1ccc(O)c(O)c1)(NN)C(=O)O [Carbidopa] | -0.294 ± 0.32 | -0.3 ± 0.16 | -0.267 | -1.41 | -0.186 | -0.233 |
| COc1cc2nc(N3CCN(C(=O)C4CCCO4)CC3)nc(N)c2cc1OC (stereo not drawn) [Terazosin HCl (Hytrin)] | 0.4 ± 0.58 | -0.123 ± 0.046 | -0.659 | 0.683 | 1.47 | 0.697 |
| CC(C)(Oc1ccc(CCNC(=O)c2ccc(Cl)cc2)cc1)C(=O)O [Bezafibrate] | 0.901 ± 0.15 | 0.59 ± 0.42 | 1.31 | 0.553 | 0.953 | 0.333 |
| CN1C(C(=O)Nc2ccccn2)=C(O)c2sc(Cl)cc2S1(=O)=O [Lornoxicam (Xefo)] | -0.389 ± 0.98 | 0.251 ± 0.52 | 0.22 | 0.0548 | 0.0069 | -0.622 |
| CN1CCN(C2=Nc3cc(Cl)ccc3Nc3ccccc32)CC1 [Clozapine (Clozaril)] | 0.0857 ± 0.47 | -0.463 ± 0.37 | 0.00762 | 1.34 | -1.53 | 0.284 |
| C[N+](C)(C)C[C@H](O)CC(=O)[O-] [L-carnitine (Levocarnitine)] | -0.416 ± 0.63 | -0.00221 ± 1.2 | 0.637 | 0.0298 | 0.843 | 0.611 |
| OC(CCN1CCCCC1)(c1ccccc1)C1CC2C=CC1C2 (stereo not drawn) [Biperiden HCl] | 0.159 ± 0.52 | -1.63 ± 1 | 0.434 | 0.851 | -0.863 | 0.0818 |
| CC(C(=O)O)c1cccc(Oc2ccccc2)c1 (stereo not drawn) [Fenoprofen calcium] | 0.266 ± 0.11 | -0.509 ± 0.36 | 0.212 | 1.38 | -0.537 | 0.663 |
| COc1ccc(CNc2nc(N3CCC[C@H]3CO)ncc2C(=O)NCc2ncccn2)cc1Cl [Avanafil] | -0.789 ± 0.082 | -0.52 ± 1.7 | -2.3 | 1.12 | -2.22 | -0.783 |
| O=C(CCCN1CCN(c2ccccn2)CC1)c1ccc(F)cc1 [Azaperone] | -0.91 ± 0.57 | 0.173 ± 0.067 | -1.02 | 0.315 | 0.65 | -0.151 |
| CCCC(CCC)C(=O)O [Divalproex sodium] | 0.174 ± 0.45 | -0.462 ± 0.73 | 0.269 | -0.0115 | 0.222 | -0.0517 |
| COc1c(N2C[C@@H]3CCCN[C@@H]3C2)c(F)cc2c(=O)c(C(=O)O)cn(C3CC3)c12 [Moxifloxacin hydrochloride] | 0.103 ± 0.45 | -0.208 ± 0.29 | -0.933 | 0.293 | -0.83 | -0.115 |
| CC1=NN(c2ccc(C)c(C)c2)C(=O)/C1=N\Nc1cccc(-c2cccc(C(=O)O)c2)c1O | -2.27 ± 0.54 | -4.79 ± 1.7 | -4.16 | -4.63 | -2.06 | -3.32 |
| CC(N/C(=N\C#N)Nc1ccncc1)C(C)(C)C (stereo not drawn) [Pinacidil] | -0.268 ± 0.49 | -1.27 ± 2.5 | 0.632 | 0.263 | 0.429 | -8.45 |
| O=C(O)c1cn(C2CC2)c2cc(N3CCNCC3)c(F)cc2c1=O [Ciprofloxacin (Cipro)] | -0.875 ± 0.052 | -0.703 ± 0.47 | -0.375 | -0.921 | -1.24 | -0.878 |
| CCCc1nc(C(C)(C)O)c(C(=O)OCc2oc(=O)oc2C)n1Cc1ccc(-c2ccccc2-c2nnn[nH]2)cc1 [Olmesartan medoxomil (Benicar)] | 0.538 ± 0.0054 | 0.0881 ± 0.32 | 1.86 | 0.692 | 0.00538 | 0.113 |

| SMILES | log2 surviving fraction (OVCAR4; [1]) | log2 surviving fraction (OVCAR4; [2]) | log2 surviving fraction (Ov4Carbo; [1]) | log2 surviving fraction (Ov4Carbo; [2]) | log2 surviving fraction (Ov4Cis; [1]) | log2 surviving fraction (Ov4Cis; [2]) |
| --- | --- | --- | --- | --- | --- | --- |
| CC[C@H](C)[C@H](N)C1=N[C@H](C(=O)N[C@@H](CC(C)C)C(=O)N[C@H](CCC(=O)[O-])C(=O)N[C@H](C(=O)N[C@H]2CCCCNC(=O)[C@H](CC(N)=O)NC(=O)[C@@H](CC(=O)[O-])NC(=O)[C@H](Cc3cnc[nH]3)NC(=O)[C@@H](Cc3ccccc3)NC(=O)[C@H]([C@@H](C)CC)NC(=O)[C@@H](CCCN)NC2=O)[C@@H](C)CC)CS1.[Zn+2] [Bacitracin zinc] | 0.986 ± 0.091 | 0.38 ± 0.091 | 0.00608 | 0.698 | 0.0616 | 0.187 |
| Clc1ccc(CSC(Cn2ccnc2)c2ccc(Cl)cc2Cl)cc1 (stereo not drawn) [Sulconazole Nitrate] | -1.65 ± 0.75 | -1.29 ± 0.26 | -1.02 | -3.87 | -0.84 | -3.02 |
| CS(=O)(=O)CCNCc1ccc(-c2ccc3ncnc(Nc4ccc(OCc5cccc(F)c5)c(Cl)c4)c3c2)o1 [Lapatinib] | -6.64 ± 2.3 | -5.76 ± 1.9 | -7.51 | -8.7 | -7.31 | -3.96 |
| C[C@H](Cc1cc2c(c(C(N)=O)c1)N(CCCO)CC2)NCCOc1ccccc1OCC(F)(F)F [Silodosin (Rapaflo)] | -0.381 ± 0.14 | -0.373 ± 0.37 | -0.857 | -0.351 | -0.44 | -0.557 |
| Cc1c(O)c(=O)ccn1C [Deferiprone] | 0.0222 ± 0.026 | 0.00479 ± 0.71 | 0.776 | 0.0905 | 0.101 | 0.0939 |
| C[C@](N)(Cc1ccc(O)c(O)c1)C(=O)O [Methyldopa (Aldomet)] | -0.208 ± 0.45 | 0.12 ± 0.47 | 1.91 | -0.481 | 1.25 | 1.43 |
| CCCCCN(C)CCC(O)(P(=O)(O)O)P(=O)(O)O [Ibandronate sodium] | -0.243 ± 0.026 | -1.6 ± 1.4 | 0.443 | -1.69 | -1.03 | -0.457 |
| CCOc1ccc2nc3cc(N)ccc3c(N)c2c1 [Ethacridine lactate monohydrate] | -7.73 ± 4.8 | -11.9 ± 8.5 | -2.26 | -8.26 | -9.24 | -17.3 |
| Nc1nc2[nH]cc(CCc3ccc(C(=O)N[C@@H](CCC(=O)O)C(=O)O)cc3)c2c(=O)[nH]1 [Pemetrexed] | -0.808 ± 0.37 | -1.28 ± 4.1 | -1.38 | -3.45 | 0.944 | -0.634 |
| CC1(C)Cc2c(-c3ccccc3)c(-c3ccc(Cl)cc3)c(CC(=O)O)n2C1 [Licofelone] | 0.541 ± 0.48 | -0.0175 ± 0.17 | 0.514 | -3.07 | 0.763 | 0.0779 |
| CC1(C)[C@H](C(=O)O)N2C(=O)C[C@H]2S1(=O)=O [Sulbactam] | -0.832 ± 0.99 | 0.134 ± 0.17 | 0.636 | -0.00723 | -0.653 | -0.366 |
| O=C(O)C[C@H](O)C[C@H](O)/C=C/c1c(C2CC2)nc2ccccc2c1-c1ccc(F)cc1 [Pitavastatin calcium (Livalo)] | -3.11 ± 0.31 | -5.79 ± 2.3 | -3.49 | -8.57 | -2.21 | -6.97 |
| CNC(=O)c1cc(Oc2ccc(NC(=O)Nc3ccc(Cl)c(C(F)(F)F)c3)c(F)c2)ccn1 [Regorafenib (BAY 73-4506)] | -0.205 ± 0.56 | -0.819 ± 2.8 | -8.72 | 0.0983 | 0.254 | -1.42 |
| O=C1C(O)=C([C@H]2CC[C@H](c3ccc(Cl)cc3)CC2)C(=O)c2ccccc21 [Atovaquone (Atavaquone)] | 0.846 ± 0.033 | -0.179 ± 0.52 | 1.06 | 1.34 | -0.212 | -0.155 |
| Cc1nccn1CC1CCc2c(c3ccccc3n2C)C1=O (stereo not drawn) [Ondansetron hydrochloride (Zofran)] | -0.451 ± 0.98 | 0.0516 ± 0.037 | 0.605 | -1.1 | 0.166 | 0.0694 |
| CCc1c2c(nc3ccc(OC(=O)N4CCC(N5CCCCC5)CC4)cc13)-c1cc3c(c(=O)n1C2)COC(=O)[C@]3(O)CC [Irinotecan] | -4.63 ± 0.78 | -4.19 ± 2.4 | -6.53 | -9.59 | -7.54 | -7.97 |
| CC[C@H](C)C(=O)O[C@H]1CCC=C2C=C[C@H](C)[C@H](CC[C@@H]3C[C@@H](O)CC(=O)O3)[C@H]21 [Mevastatin] | -0.563 ± 0.85 | -1.72 ± 0.11 | -2.11 | -3.6 | -0.725 | -1.62 |
| O=c1ccn([C@@H]2O[C@H](CO)[C@@H](O)[C@H]2O)c(=O)[nH]1 [Uridine] | -0.794 ± 0.35 | -0.663 ± 0.58 | -0.954 | -0.0734 | -0.751 | -1.47 |
| Nc1cccc2c1CN(C1CCC(=O)NC1=O)C2=O (stereo not drawn) [Lenalidomide] | 0.697 ± 0.52 | 2.95 ± 2.8 | 0.519 | 2.72 | 1.41 | 1.22 |
| CC(COc1ccccc1)N(CCCl)Cc1ccccc1 (stereo not drawn) [Phenoxybenzamine HCl] | -0.464 ± 0.26 | -0.374 ± 0.78 | 0.557 | 0.656 | -0.435 | -0.718 |
| Nc1nc2c(ncn2COCCO)c(=O)[nH]1 [Acyclovir (Aciclovir)] | -0.386 ± 1.2 | 0.181 ± 0.62 | -0.509 | 0.396 | 0.598 | 0.57 |
| CC(C)Cn1cnc2c(N)nc3ccccc3c21 [Imiquimod] | 0.659 ± 0.94 | 3.49 ± 2.8 | 0.887 | 1.43 | 1.08 | 1.15 |
| CN(C(=O)CN(CCO)CC(=O)N(C)C(C)(C)Cc1ccccc1)C(C)(C)Cc1ccccc1 [Oxethazaine] | -5.78 ± 1.9 | -3.08 ± 4.3 | -5.76 | -6.17 | -5.97 | -5.3 |
| O=C(O)CCNC(=O)c1ccccc1 [Betamipron] | 0.0753 ± 0.42 | 0.166 ± 0.47 | -0.0501 | -0.117 | 0.326 | -0.265 |
